Binding data for four substances are collected here from PMC5491523.

By UniProt entry, the sequences of proteins in these tests, tags left out. Where a name states a change or a piece, a line headed by the entry shows the natural chain unless it says otherwise.
UniProt Q8TDI8: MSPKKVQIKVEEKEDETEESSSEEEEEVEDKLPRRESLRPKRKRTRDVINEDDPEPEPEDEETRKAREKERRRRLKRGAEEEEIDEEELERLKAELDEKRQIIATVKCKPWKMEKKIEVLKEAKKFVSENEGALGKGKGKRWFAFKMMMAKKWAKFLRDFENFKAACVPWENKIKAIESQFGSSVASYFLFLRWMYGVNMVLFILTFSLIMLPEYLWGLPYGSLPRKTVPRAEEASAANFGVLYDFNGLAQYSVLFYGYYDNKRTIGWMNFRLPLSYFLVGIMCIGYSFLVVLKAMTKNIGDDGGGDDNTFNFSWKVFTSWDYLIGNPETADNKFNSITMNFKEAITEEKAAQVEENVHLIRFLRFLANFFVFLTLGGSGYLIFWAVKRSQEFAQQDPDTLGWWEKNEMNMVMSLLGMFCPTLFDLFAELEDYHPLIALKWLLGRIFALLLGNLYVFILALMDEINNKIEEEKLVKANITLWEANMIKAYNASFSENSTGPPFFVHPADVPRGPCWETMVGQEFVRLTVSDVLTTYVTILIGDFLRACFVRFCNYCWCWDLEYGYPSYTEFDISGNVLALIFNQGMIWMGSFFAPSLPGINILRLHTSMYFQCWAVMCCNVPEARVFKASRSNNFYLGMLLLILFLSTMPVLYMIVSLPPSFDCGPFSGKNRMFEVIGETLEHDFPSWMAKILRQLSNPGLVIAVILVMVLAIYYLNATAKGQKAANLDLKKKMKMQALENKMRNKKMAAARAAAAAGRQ
UniProt O75838: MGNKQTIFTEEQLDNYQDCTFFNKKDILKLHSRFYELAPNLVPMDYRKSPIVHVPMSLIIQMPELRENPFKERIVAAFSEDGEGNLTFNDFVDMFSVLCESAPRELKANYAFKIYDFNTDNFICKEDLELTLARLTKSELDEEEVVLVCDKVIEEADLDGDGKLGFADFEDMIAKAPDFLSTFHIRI

These are yes or no findings as the source states them, for the method shown. In cells and extracts the contact can be indirect. Some binding calls cover weakened binding; strength is not graded here. For some of these results: Sequences can lack the tags named with a protein.

Assay in all cases: FRET or BRET; acceptor photobleaching FRET in fixed, co-transfected CHO-K1 cells; GFP/EGFP fusion as donor, V5 fusion stained with anti-V5 and goat anti-mouse Alexa Fluor 555 as acceptor
Assay [1] deals with TMC1-EGFP (EGFP tagged human full length TMC1) (human) (UniProt Q8TDI8).
The target in a further assay is T1, TMIE-GFP (UniProt Q8NEW7).
T1 sequence: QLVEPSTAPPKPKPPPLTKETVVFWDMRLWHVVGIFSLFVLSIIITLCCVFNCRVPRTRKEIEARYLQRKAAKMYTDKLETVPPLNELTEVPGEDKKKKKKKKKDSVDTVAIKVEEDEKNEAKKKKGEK

In another assay the target is T2, TMC2-EGFP (UniProt Q8TDI7).
T2 sequence: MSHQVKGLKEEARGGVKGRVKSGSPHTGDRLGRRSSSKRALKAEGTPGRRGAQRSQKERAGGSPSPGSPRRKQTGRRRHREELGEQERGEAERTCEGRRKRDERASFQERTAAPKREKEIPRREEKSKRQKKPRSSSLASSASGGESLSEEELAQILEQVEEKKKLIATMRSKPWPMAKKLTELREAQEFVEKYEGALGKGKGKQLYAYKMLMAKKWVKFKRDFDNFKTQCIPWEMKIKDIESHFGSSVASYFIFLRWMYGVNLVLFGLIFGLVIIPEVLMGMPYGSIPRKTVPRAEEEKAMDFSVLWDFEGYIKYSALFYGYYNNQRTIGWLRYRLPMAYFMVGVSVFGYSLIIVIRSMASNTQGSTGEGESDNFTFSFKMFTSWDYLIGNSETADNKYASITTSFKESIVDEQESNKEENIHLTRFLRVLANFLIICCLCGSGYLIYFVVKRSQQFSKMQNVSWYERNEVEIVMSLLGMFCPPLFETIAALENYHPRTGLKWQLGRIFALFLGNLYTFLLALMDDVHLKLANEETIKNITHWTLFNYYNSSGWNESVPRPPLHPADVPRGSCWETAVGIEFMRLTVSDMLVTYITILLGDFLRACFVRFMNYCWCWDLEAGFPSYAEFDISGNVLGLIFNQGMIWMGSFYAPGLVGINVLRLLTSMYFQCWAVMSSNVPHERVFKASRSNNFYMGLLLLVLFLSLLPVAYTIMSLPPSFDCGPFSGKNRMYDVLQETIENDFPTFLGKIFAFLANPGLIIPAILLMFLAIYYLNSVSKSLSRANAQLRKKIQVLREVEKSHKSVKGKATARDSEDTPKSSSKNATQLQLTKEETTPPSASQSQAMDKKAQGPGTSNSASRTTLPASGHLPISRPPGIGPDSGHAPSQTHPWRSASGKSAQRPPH

The next assay has as its target T3, LHFPL5-GFP (UniProt Q8TAF8).
T3 sequence: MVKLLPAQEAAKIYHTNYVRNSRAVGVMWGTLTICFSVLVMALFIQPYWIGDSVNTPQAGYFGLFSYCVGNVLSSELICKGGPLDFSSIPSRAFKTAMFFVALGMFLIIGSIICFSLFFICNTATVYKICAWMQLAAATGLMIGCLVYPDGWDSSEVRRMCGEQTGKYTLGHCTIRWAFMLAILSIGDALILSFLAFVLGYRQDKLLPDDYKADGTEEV

For the substance “CIB2-V5 p.R186W (from UniProt O75838 1-187)”, the binding entry in assay [1] is “binds”. The same measure, in the same setting: with “CIB2-V5 p.R66W (from UniProt O75838 1-187)” the entry was “binds”. For the substance “CIB2-V5 (calcium and integrin-binding protein 2, V5 tagged, wild type) (from UniProt O75838 1-187)”, the binding entry in the assay with TMIE-GFP is recorded as “no binding”; in the assay with TMC2-EGFP it was “binds”; with LHFPL5-GFP it was “no binding”; in assay [1] it was “binds”. Consider “CIB2-V5 p.I123T (from UniProt O75838 1-187)”, for which the binding entry in assay [1] is recorded as “binds”.
